Laboratory results as given in the supplement of paper PMC12217912.
The other results are listed elsewhere or left out. The full chains were built here from the parent and the listed change. Inactive controls read about 0.05.

B1: TEV protease; numbered along this chain (parent)
chain: MGESLFKGPRDYNPISSSICHLTNESDGHTTSLYGIGFGPFIITNKHLFRRNNGTLVVQSLHGVFKVKDTTTLQQHLVDGRDMIIIRMPKDFPPFPQKLKFREPQREERICLVTTNFQTKSMSSMVSDTSCTFPSGDGIFWKHWIQTKDGQCGSPLVSTRDGFIVGIHSASNFTNTNNYFTSVPKNFMELLTNQEAQQWVSGWRLNADSVLWGGHKVFMVKPEEPFQPVKEATQL

Variants of: B1
Test: raw area under fraction-flipped curve 0-4 h after induction (AUC4h, not background-subtracted), DNA-recorder readout of cleavage of the substrate (dimensionless); higher = more cleavage of the substrate by the protease variant
Conditions: temperature: 34 °C; time window: 0-4 h after rhamnose induction
Experimental: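 In vivo DNA recorder in E. coli TOP10(DE3) ΔrhaA at 34 °C. Each TEVp single-site mutant (parent TEVp 0) is paired with a single-site variant of the 7-mer TEVs (canonical ENLYFQ|S). The substrate sits between flexible linkers in a Bxb1-sfGFP-TEVs-SsrA fusion, so cleavage stabilises Bxb1 and speeds flipping of a recombination array, read by NGS. The value is the raw area under the fraction-flipped curve over 0-4 h after rhamnose induction (AUC4h), with ≥20 reads per time point. It is not background-subtracted; inactive controls average about 0.047.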
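Also: Bxb1 expression induced with 0.2% (w/v) L-rhamnose at OD600 near 0.5, cultures sampled hourly, flipped fraction per protease–substrate barcode pair counted by paired-end Illumina sequencing.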

Variant	area with substrate ENLAFQS	area with substrate ENLDFQS	area with substrate ENLEFQS	area with substrate ENLFFQS	area with substrate ENLHFQS	area with substrate ENLIFQS	area with substrate ENLKFQS	area with substrate ENLLFQS	area with substrate ENLNFQS	area with substrate ENLPFQS	area with substrate ENLSFQS	area with substrate ENLVFQS	area with substrate ENLWFQS	area with substrate ENLMFQS	area with substrate ENLQFQS	area with substrate ENLRFQS	area with substrate ENLTFQS	area with substrate ENLCFQS	area with substrate ENLGFQS
I43G	0.0494	0.039	0.0416	0.0499	0.0294	0.037	0.0424	0.0549	0.058	0.0531	0.0663	0.0468	0.0415	–	–	–	–	–	–
I43F	0.099	0.0642	0.0754	0.0671	0.0464	–	0.0618	0.0622	0.0502	0.059	0.0544	0.06	–	0.0618	0.0519	0.0682	0.0536	–	–
V67C	0.0647	0.0517	0.0648	–	0.0552	0.105	0.0956	0.0727	–	–	0.086	–	–	–	–	–	–	–	–
I36Q	0.0551	0.0578	0.0471	0.0581	0.0582	–	0.0619	–	0.0504	–	0.0467	–	0.0475	–	0.0767	0.0516	–	–	–
I36F	0.0636	0.0656	0.0325	0.0517	0.0665	–	0.0707	–	0.0752	0.0599	0.0582	–	0.0612	–	–	0.0579	–	0.058	–
N24M	0.0668	–	–	0.0574	–	–	0.0679	0.0888	0.0796	0.0584	–	–	–	0.0814	–	–	0.088	–	0.0638
H29K	0.0558	–	–	0.0551	0.0685	0.0801	0.0764	–	0.0591	–	0.0759	0.0781	–	–	–	–	–	–	–
K46W	0.0616	0.057	0.0681	0.0695	0.0394	0.0627	0.0627	0.0648	0.0615	0.0287	0.051	0.0618	–	–	0.0375	0.0501	0.0476	0.0548	–
F41T	0.0521	0.0605	0.0633	0.0693	0.056	0.0846	0.0748	0.0618	0.0595	0.065	0.0503	–	0.0598	–	–	0.0817	–	0.059	–
H47M	0.0411	0.056	0.028	0.061	0.0636	0.055	0.0564	0.063	0.0632	0.0607	0.053	–	–	0.0547	0.056	0.0302	0.0587	0.0529	–
T70G	0.0697	0.0624	–	–	–	0.0673	–	0.0598	0.0584	0.0597	–	0.0573	0.054	–	–	–	–	–	–
G54S	0.0527	0.0636	0.0589	0.062	0.0598	0.0662	0.0648	0.0586	0.0606	0.0749	0.062	–	0.0351	–	0.0618	–	–	0.0648	0.0516
L33G	0.065	0.068	0.0458	0.0847	0.0652	0.0697	0.0679	–	0.0569	0.0626	0.0675	0.0903	0.0634	0.0622	0.059	0.0739	–	0.0464	0.07
L33W	0.069	0.0642	0.0723	0.0662	0.056	0.0609	–	–	0.0643	0.0605	0.0654	–	0.0493	0.073	0.0667	0.0647	–	–	0.0373
S60P	0.044	0.0421	0.0469	0.0551	0.0604	–	0.0466	–	0.0404	0.0482	0.0438	–	0.0404	–	–	0.0532	0.0326	–	–
S60M	0.0764	0.0618	0.0668	0.1	0.066	0.0778	0.0879	0.118	0.0636	0.0584	0.0409	0.0866	0.0661	0.0585	0.0602	0.0562	–	0.072	–
S60R	0.0679	0.0571	–	0.0687	0.0828	0.0611	0.0664	0.0681	0.0529	0.0495	0.0564	–	0.0655	0.0521	0.0758	–	0.0645	–	0.0591
N45R	0.0594	0.0562	0.0656	0.0706	0.0589	0.0619	0.0613	–	0.0596	0.0585	0.0714	–	–	–	0.0635	–	0.0642	0.0537	–
N45M	0.058	0.0657	0.0624	0.0797	0.0839	0.0419	0.065	0.0516	0.0638	0.0664	0.0498	0.0634	0.0733	0.0413	0.0614	0.0683	–	0.0722	0.0695
N45C	0.0782	0.0708	0.0517	0.119	0.0811	0.0968	–	0.0739	0.0793	–	0.0515	–	0.0583	–	–	0.0777	–	–	0.0842
K68V	0.0733	0.0518	0.0642	0.0674	0.0612	0.0763	0.0863	0.0677	0.0598	0.0507	–	0.0729	0.0744	0.0671	0.0493	0.0732	–	0.033	0.0553
K68C	0.0575	–	0.0623	0.113	0.0834	0.106	0.095	0.0805	0.0661	0.0606	0.0504	–	–	–	–	0.0715	–	–	0.0563
T23V	0.114	0.059	–	0.0901	0.0784	–	0.0908	0.0797	0.0658	0.0602	0.0683	0.109	0.0613	0.0584	0.0631	0.08	0.0754	0.07	0.0538
T23H	0.0637	–	0.0543	0.084	0.0709	0.0755	0.0584	0.0598	0.0691	0.068	0.0601	0.0834	–	–	–	0.0764	–	0.0582	0.0665
L56E	0.0429	0.0642	0.0482	0.0544	0.0419	0.0504	0.0478	0.0507	0.0522	–	0.0554	–	0.0412	0.0613	–	–	–	–	0.0406
G35W	0.0486	0.0582	0.0513	0.0781	–	–	0.0603	–	0.0435	0.0554	0.07	0.0491	0.0522	–	0.041	0.0328	–	–	0.0778
